# Reference: ChEMBL document CHEMBL1157539, “Thousands of chemical starting points for antimalarial lead identification” (Nature, 2010)
# Over roughly 13,000 compounds, “IFI” has its median near 4; the highest 2% begin near 17. The list shows a part of the results.
# Experiment: GSK_TCMDC: Inhibition Frequency Index (IFI). The number of non-kinase HTS assays where a compound showed > 50 % inhibition, expressed as a percentage of the number of such assays in which the compound was tested (-0 is zero)
# Type: functional
row,SMILES,IFI [%]
1,c1cncc(-c2cc(N3CCc4ccccc4C3)nc(-c3ccncc3)n2)c1,6.38
2,COCCCNc1nc2cc(OC)c(OC)cc2c2nc(-c3ccccc3)nn12,0.93
3,COc1cccc2c(N/N=C/c3ccc([N+](=O)[O-])cc3)ccnc12,0.72
4,O=C(N[C@@H](CC1CCCCC1)C(=O)NC1CCCCC1)c1ccc(O)c(-c2cccc(C(F)(F)F)c2)c1,2.19
5,COc1ccc(CNC2Cc3ccccc3C2)cc1-c1ccc(OC)c(S(=O)(=O)NCCN2CCCC2)c1,7.69
6,Cc1ccc2nc(N(CCCn3ccnc3)C(=O)C=Cc3cccs3)sc2c1,4.26
7,COc1nc2c(CCN3CC[C@H](NCc4cc(C#N)c5c(c4)CCO5)[C@H](O)C3)ccnc2cc1F,2.97
8,Cn1nccc1C(=O)NCCNCc1cccc(-c2cccc(-c3nc4cc(C(F)(F)F)ccc4[nH]3)c2)c1,8.91
9,CC(C)(C)OC(=O)Cn1cnc2cc(NC(=O)c3cc([N+](=O)[O-])cc([N+](=O)[O-])c3)ccc21,0.71
10,CC(=NNC(S)=NCCc1ccccn1)c1ccccn1,6.78
11,O=C(/C=C/c1ccc(Cl)c(Cl)c1)NCCCCCN1CCC(NC(=S)Nc2ccc(Cl)cc2Cl)CC1,11.6
12,COC(=O)c1ccc2nc(-c3ccc(C(=O)NCc4ccc(Cl)c(Cl)c4)cc3)[nH]c2c1,0.76
13,N#Cc1ccc(N/C(=N\c2ccccc2Br)N(C2CCCCC2)C2CCCCC2)c(O)c1,3.76
14,COc1ccc(Cl)cc1N1CCN(CCCNC(=O)c2ccc(-c3nc4cc(Cl)c(C)cc4[nH]3)c(F)c2)CC1,1.54
15,Cc1ccccc1CN1CCCN(Cc2ccc(C(=O)Nc3ccc(C(C)(C)C)cc3)cc2)CC1,18.4
16,Cc1ccc(NC(=O)N2CCCN(CCCCCNC(=O)/C=C/c3ccc(Cl)c(Cl)c3)CC2)cc1C,4.64
17,CN1C(=CC(=O)NC(=O)c2ccccc2)C(C)(C)c2ccccc21,0.81
18,CCN(CC)c1ccc(C(c2ccc(N(CC)CC)cc2)c2cccc([N+](=O)[O-])c2)cc1,3.65
19,c1cc(CN2CCCCC2)cc(OCCCNc2ccnc3ccccc23)c1,5.8
20,CCc1ccc(S(=O)(=O)Nc2ccc(CCN3CCC(N4CCCCC4)CC3)cc2)cc1,9.23
21,COc1ccc(C2=CCN(c3ccc(Cl)c(Cl)c3)C2=O)cc1OCCN1CCCCC1,7.32
22,Cc1cnc(NC(=O)c2cn(-c3ccccc3)nc2-c2cccs2)s1,0.88
23,C(=NNc1nc2ccccc2[nH]1)c1ccccc1OCc1ccccc1,0.71
24,COc1ccc(-c2cccc(NC(=O)c3ccc(C#N)cc3)c2)cc1CN1CCCN(C)CC1,5.94
25,Cc1cc(Nc2nc(Nc3cccc(Cl)c3)nc3ccccc23)n[nH]1,6.29
